The whole screen tested about 110,000 compounds, of which about 230 (0.21%) showed an effect of 50% or more. This is one part of the list.
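Further: 30 min substrate incubation versus DMSO and 10 µM JCP410 controls.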

In this assay the target is DPAP1 (Plasmodium falciparum, UniProt Q8IIJ9). The assay can be described thus: primary screen, percent inhibition; read by cleavage of a fluorogenic dipeptide substrate; higher = more effect of the substance. On the set-up: species or system P. falciparum D10 trophozoite lysates; single well.
Chain of DPAP1 (Q8IIJ9 whole entry, looked up): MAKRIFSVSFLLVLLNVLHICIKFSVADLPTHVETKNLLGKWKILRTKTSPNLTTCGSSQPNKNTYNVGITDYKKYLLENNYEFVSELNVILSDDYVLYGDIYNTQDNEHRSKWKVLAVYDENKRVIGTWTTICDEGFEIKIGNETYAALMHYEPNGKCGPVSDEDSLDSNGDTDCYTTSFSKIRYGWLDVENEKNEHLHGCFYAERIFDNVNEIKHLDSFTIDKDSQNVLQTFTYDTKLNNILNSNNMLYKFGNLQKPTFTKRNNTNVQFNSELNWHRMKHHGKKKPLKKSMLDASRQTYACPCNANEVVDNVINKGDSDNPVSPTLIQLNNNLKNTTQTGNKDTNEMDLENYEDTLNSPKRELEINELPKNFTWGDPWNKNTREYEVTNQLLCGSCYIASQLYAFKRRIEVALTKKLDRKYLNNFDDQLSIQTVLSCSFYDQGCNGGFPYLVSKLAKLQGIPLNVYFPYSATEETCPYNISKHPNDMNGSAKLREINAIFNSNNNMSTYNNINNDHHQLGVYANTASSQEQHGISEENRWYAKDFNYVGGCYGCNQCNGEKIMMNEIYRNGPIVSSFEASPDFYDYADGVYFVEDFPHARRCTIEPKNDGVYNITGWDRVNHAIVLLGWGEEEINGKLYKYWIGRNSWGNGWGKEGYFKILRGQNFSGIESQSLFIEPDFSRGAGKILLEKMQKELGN
Consider `Cc1ccc(CN2CCN(C(=S)NCC(=O)NCc3cccs3)CC23CCCCC3)cc1`, for which the “% Inhibition @ 10 uM” value is given as -4.97%.
Under `COc1ccc(OC)c(C2=NOC(C(=O)NCCc3ccc(OC)c(OC)c3)C2)c1` (centres unmarked) stands 2.85%; under `COc1ccc(CCN2C(=S)NC3CC2(C)Oc2ccccc23)cc1OC` (centres unmarked), -4.19%; under `COC(=O)c1cc(C)sc1N`, 3.36%.
The figure for `Cc1ccc(CN2CCC(O)(c3ccc(Br)cc3)CC2)s1` is -1.21%.
The figure for `Cc1ccc(S(=O)(=O)/C(C#N)=C/c2sccc2C)cc1` is 6.22%; for `Cc1ccc(-c2csc3ncn(CC(=O)Nc4cccc5ccccc45)c(=O)c23)cc1` it is -2.05%; for `CN1CCCN(CCCc2ccccc2)CC1` it is 0.217%.
`Cc1ccc(C2CC(c3ccccc3C)n3nnnc3N2)cc1` (centres unmarked): the “% Inhibition @ 10 uM” value is listed as 0.0842%.
The figure for `COc1ccc(CNCc2cccc(OC)c2OC)cc1` is -2.14%; for `CC1CCCN(S(=O)(=O)c2ccc(F)cc2)C1` (centres unmarked) it is -3.04%.
`CCN1CCC(NCCC2=CCCCC2)CC1`: the “% Inhibition @ 10 uM” value came out at 0.217%.
Under `CS(=O)(=O)N(CC(=O)Nc1cccc(Cl)c1)c1cccc(Cl)c1` stands -3.94%; under `CCC(C(=O)NC(C)C)n1nc(C)c2c(C)n(-c3ccc(C)cc3)nc2c1=O` (centres unmarked), -3.81%.
In the case of `O=C(Cn1ncc2c1-c1ccccc1OC2)Nc1nccs1`, the “% Inhibition @ 10 uM” value is reported as -0.692%.
The figure for `COc1ccc(NC(=O)COc2ccc(C)cc2)cc1Cl` is 7.09%; for `NS(=O)(=O)c1ccc(-c2ccc(/C=C3/C(=O)NN(c4cccc(Cl)c4)C3=O)o2)cc1` it is 3.76%.
Under `CC(C)(C)C1(C)O[C@@H](C(N)=O)[C@H](C(N)=O)O1` stands 0.035%.
For the compound `COCC(=O)Nc1ccc(C(=O)c2ccccc2)cc1`, the “% Inhibition @ 10 uM” value is on record as -0.884%.
The figure for `CCCNC(=O)c1ccc(CN(c2ccccc2)S(C)(=O)=O)cc1` is -1.98%; for `CCOc1ccccc1NC(=O)c1c(OC)cccc1OC` it is -8.01%.
Under `CCc1ccc2oc(C(=O)N(Cc3sccc3C)C3CCS(=O)(=O)C3)c(C)c2c1` (centres unmarked) stands 5.29%; under `COc1cc(C(=O)Nc2nc(C(F)(F)F)c(-c3ccccc3)s2)cc(OC)c1OC`, -2.91%.
The figure for `CCN1CCN(c2ccc(Nc3ccnc4cc5ccccc5cc34)cc2)CC1` is 7.87%.
For the compound `COc1ccccc1-c1c(C)nn2c(NCc3ccc(C)cc3)cc(C)nc12`, the “% Inhibition @ 10 uM” value is -3.7%.
The figure for `COC(=O)c1cc(S(=O)(=O)NCc2cccnc2)cn1C` is 3.92%.
Under `CCCC(=O)Nc1ccc(Cl)c(NC(=O)COc2cccc3ccccc23)c1` stands -8.88%; under `CC1CCN(C2=NC(=O)/C(=C\c3ccc(N(C)C)cc3)S2)CC1`, 7.49%; under `Cc1ccc(-n2c(C)nc3ccsc3c2=O)cc1`, -1.12%.
Under `Cc1noc2ncn(CC(=O)NCc3ccco3)c(=O)c12` stands 1.06%.
Consider `COc1ccc(-c2ncnn2-c2cccc(C(F)(F)F)c2)cc1OC`, for which the “% Inhibition @ 10 uM” value is listed as -3.6%.
The figure for `COc1ccc(S(=O)(=O)N2CCN(c3cccc(Cl)c3)CC2)cc1Br` is -12%; for `O=C(NCCNC(=O)c1ccc2c(c1)OCO2)c1ccc2c(c1)OCO2` it is 4.11%; for `Cc1nc2cc(-c3ccc4[nH]c(C)nc4c3)ccc2[nH]1` it is -5.47%.
The figure for `Cc1ccc(-n2nc(C)c3c2OC(N)=C(C#N)C3c2cccc(F)c2)cc1` (centres unmarked) is -0.941%; for `COc1ccc(/C=C/C2=CC(C)(C)NC(S)=N2)c(OC)c1` it is -3.39%; for `CCOCCCNC(=O)Cn1nc(-c2ccccc2)ccc1=O` it is -2.99%.
Take `CCOC(=O)c1sc2ncnc(N3CCN(Cc4ccc5c(c4)OCO5)CC3)c2c1C`: the “% Inhibition @ 10 uM” value was -3.23%.
The figure for `CCOc1cc(C(=O)NC(C)c2ccc(CC)cc2)cc(OCC)c1OCC` (centres unmarked) is -4.91%; for `O=C(NCCc1nc2ccccc2n1Cc1cccc2ccccc12)c1ccco1` it is -2.99%.
Under `Cc1cc(C)n(-c2nc3ccccc3nc2N2CCOCC2)n1` stands 3.98%; under `Cc1sc(NC(=O)c2ccc(-c3ccccc3)cc2)c(C(N)=O)c1C`, 5.42%.
Under `CCN1CC(=O)Nc2c(sc3nc(C)cc(C)c23)C1=O` stands -0.992%; under `Cc1ccccc1OCCCCn1c(C)nc2ccccc21`, 2.73%.
`COc1ccc(Nc2nc(OC(C(F)(F)F)C(F)(F)F)nc(N3CCCCC3)n2)cc1`: the “% Inhibition @ 10 uM” value was 1.49%.
The figure for `O=C1CC(C2CCCO2)C(=O)N1Cc1ccccc1` (centres unmarked) is -3.77%.
Under `NC1=NC(=O)CC(c2ccccc2Cl)N1` (centres unmarked) stands -4.46%; under `O=C(C1=C(O)C(=O)N(CCO)C1c1cccc(F)c1)c1ccc(Cl)cc1` (centres unmarked), 0.727%; under `O=C(O)c1ccc(N2C(=O)c3ccccc3C2=O)cc1`, -2.77%.
The figure for `O=C(Nc1ccc(S(=O)(=O)Nc2nccs2)cc1)c1cccs1` is -2.98%; for `CCOc1ccccc1N(CC(=O)Nc1c(C)cc(C)cc1C)S(C)(=O)=O` it is -3.65%.
For `CN1CCC(N2CCC(O)(c3ccc(Br)cc3)CC2)CC1`, the “% Inhibition @ 10 uM” value was 1.57%.
The figure for `OC1=C2C(=Nc3ccccc3SC2c2ccc(Br)cc2)c2ccccc21` (centres unmarked) is 8.67%; for `C=CCSc1nc(N)c2c3c(sc2n1)COC(C(C)C)C3` (centres unmarked) it is -3.5%.
For `Cn1c(=O)c2ncn(CC(=O)Nc3ccc4oc(-c5ccc(Cl)cc5Cl)nc4c3)c2n(C)c1=O`, the “% Inhibition @ 10 uM” value is reported as -3.69%.
The figure for `O=C(NCc1nnc(O)c2ccccc12)c1cc2ccccc2oc1=O` is 3.35%; for `COc1ccc(C(C)C)cc1S(=O)(=O)Nc1ccc(Cl)cn1` it is 6.47%.
The figure for `Cc1ccc(NC(=O)C2COc3ccccc3O2)cc1` (centres unmarked) is -4.65%; for `COc1ccc(CCC(=O)Nc2cc(Cl)ccn2)cc1` it is 5.17%.
Under `Cc1cc(C)n(C(=O)CCCOc2ccc(Cl)cc2Cl)n1` stands -4.5%.
Take `COc1ccc2[nH]cc(CCN=C(N)N)c2c1`: the “% Inhibition @ 10 uM” value was -5.52%.
The figure for `CC(CNC(=O)COCc1cc(-c2ccc3c(c2)OCO3)on1)c1ccccc1` (centres unmarked) is -2.69%.
Under `Cc1c(O)cc2n(c1=O)-c1ccc(Cl)cc1C2(C)C` stands 4%; under `COc1ccc(C2C(C#N)=C(N)Oc3c2sc2ccccc32)cc1` (centres unmarked), 2.01%.
The figure for `COc1ccccc1-c1cc(N)n(S(=O)(=O)c2cccc3nsnc23)n1` is -0.495%; for `COCCO/C(O)=C1\C(C)=NC2=C(C(=O)CC(C)(C)C2)C1c1ccccc1OCc1ccccc1` (centres unmarked) it is 2.45%.
With `Cc1cc(C)c(C)c(OCCCCN2CCCCC2)c1`, the “% Inhibition @ 10 uM” value is -4.18%.
Under `CCOc1cc2c(cc1OCC)C(c1ccc(C#N)cc1)NCC2` (centres unmarked) stands -4.52%.
The figure for `O=C(c1ccc(F)cc1)N1CCC/C1=N/c1ccc(Cl)cc1` is -7.4%; for `CN1C(=O)N(C)C(=O)C(Cc2cccc(F)c2)(Cc2cccc(F)c2)C1=O` it is -3.07%.
The figure for `COc1ccccc1/C=C1\N=C(c2ccccc2F)OC1=O` is -1.51%; for `CC(C)C[C@H](NC(=O)c1ccc(-c2ccccc2Cl)cc1)C(=O)NCC#N` it is -6.46%.
Take `CC1(C)CC(=O)C(/C=N/c2ncccn2)=C(O)C1`: the “% Inhibition @ 10 uM” value is reported as -1.06%.
The figure for `CC(=O)c1ccc2c(c1)c1ccccc1n2Cc1ccccc1` is 5.44%; for `O=C(Cn1c(=O)c2cccn2c2cccnc21)N1CCC(Cc2ccccc2)CC1` it is -1.24%; for `CC(=O)O[C@@H]1NC(=O)[C@H]1NC(=O)C1(NC(=O)c2ccc(-c3csc(N4CCN(C)CC4)n3)cc2)CCCCC1` it is 1.7%.
Under `COC(=O)c1ccc2c(C(=O)C(F)(F)F)cn(CC(=O)NC(C)C)c2c1` stands 0.895%; under `Nc1cnn(C2OC(COC(=O)c3ccccc3)C(O)C2O)c(=O)n1` (centres unmarked), 1.11%; under `COc1ccc(N2CCn3c2nc2c3c(=O)n(Cc3ccccc3)c(=O)n2C)cc1`, 0.51%.
As to `NC(=O)c1c(NC(=O)COc2ccc(Cl)cc2)sc2c1CCCCC2`, the “% Inhibition @ 10 uM” value was determined as 65.1%.
As to `C/C(=C\C(=O)Nc1ccc(OCc2ccccc2)cc1)C(=O)O`, the “% Inhibition @ 10 uM” value was 4.93%.
The figure for `Cc1nc2ccccc2nc1C(N)=O` is 3.85%; for `Cc1cc2c(c(=O)o1)C(c1ccc(Br)o1)C(C#N)=C(N)O2` (centres unmarked) it is 3.01%.
Regarding `COc1ccc(C2(C(=O)Nc3ccc(C(=O)Nc4ccc(OC)cc4OC)cc3)CCOCC2)cc1`, the “% Inhibition @ 10 uM” value worked out at 3.9%.
The figure for `FC(F)Oc1ccc(Cl)cc1C1C=C(c2cccs2)Nc2ncnn21` (centres unmarked) is 1.73%; for `N#C/C(=C\c1ccccc1Cl)c1nc(-c2cc3c(ccc4ccccc43)oc2=O)cs1` it is 3.74%; for `CC(C)c1nnc(N2C(=O)c3oc4ccccc4c(=O)c3C2c2ccc(Cl)cc2)s1` (centres unmarked) it is -8.55%.
Under `N#Cc1c(-c2ccc([N+](=O)[O-])cc2)cc(C2CC2)nc1N` stands -4.04%; under `O=C(NCC1CCCO1)c1cc2nc(-c3ccc(Br)cc3)cc(C(F)(F)F)n2n1` (centres unmarked), 2.4%.
Regarding `O=C(c1cc(=O)c2cc(Cl)ccc2o1)N(Cc1cccs1)C1CCS(=O)(=O)C1` (centres unmarked), the “% Inhibition @ 10 uM” value is reported as 6.56%.
Under `COc1ccc(-n2cc(-c3ccccc3)c3c(NCCCN4CCCC4=O)ncnc32)cc1` stands 2.4%.
Under `Cc1c(C(=O)NC2CCCCC2)sc2ncn(CC(=O)N3CC(C)CC(C)C3)c(=O)c12` (centres unmarked) stands 4.35%.
Under `CCOc1c(S(=O)(=O)NCc2ccco2)ccc(Cl)c1Cl` stands 5.49%.
Take `CCOC(=O)N1CCc2[nH]c3ccc(C)cc3c2C1`: the “% Inhibition @ 10 uM” value is given as -5.06%.
The figure for `Fc1cccc(Cl)c1C1C=C(c2cccnc2)Nc2nc3ccccc3n21` (centres unmarked) is -5.05%; for `Cc1ccc(S(=O)(=O)NCCC(=O)NCc2nnc(O)c3ccccc23)cc1` it is 2.99%; for `CCCCOc1ccc(C2C(=O)N(C3CCCCC3)CC(=O)N2C2CCCC2)cc1` (centres unmarked) it is -2.26%.
The figure for `CN1CCN(Cc2cccc(O)c2)CC1` is -2.08%; for `CCCCN(CCCC)S(=O)(=O)c1cc(C(=O)OCC)n(C)c1` it is -1.06%; for `NC(=O)C1CCCN(Cc2ccccc2)C1` (centres unmarked) it is -1.21%.
Consider `O=C(CC1Sc2ccc(C(F)(F)F)cc2NC1=O)Nc1ccc(Cl)cc1` (centres unmarked), for which the “% Inhibition @ 10 uM” value was -3.69%.
